Measurements from PMC4336329 (PLoS ONE, 2015).
Screen size: about 310,000 compounds; about 2,200 (0.71%) showed an effect of 50% or more. The effect is printed as a negative number. The list shows a part of the results.

biological target: human ether-à-go-go-related gene (hERG) potassium channel (human, UniProt Q12809); test: primary screen, population patch clamp on CHO cells stably expressing hERG
Sequence (Q12809 whole entry, looked up): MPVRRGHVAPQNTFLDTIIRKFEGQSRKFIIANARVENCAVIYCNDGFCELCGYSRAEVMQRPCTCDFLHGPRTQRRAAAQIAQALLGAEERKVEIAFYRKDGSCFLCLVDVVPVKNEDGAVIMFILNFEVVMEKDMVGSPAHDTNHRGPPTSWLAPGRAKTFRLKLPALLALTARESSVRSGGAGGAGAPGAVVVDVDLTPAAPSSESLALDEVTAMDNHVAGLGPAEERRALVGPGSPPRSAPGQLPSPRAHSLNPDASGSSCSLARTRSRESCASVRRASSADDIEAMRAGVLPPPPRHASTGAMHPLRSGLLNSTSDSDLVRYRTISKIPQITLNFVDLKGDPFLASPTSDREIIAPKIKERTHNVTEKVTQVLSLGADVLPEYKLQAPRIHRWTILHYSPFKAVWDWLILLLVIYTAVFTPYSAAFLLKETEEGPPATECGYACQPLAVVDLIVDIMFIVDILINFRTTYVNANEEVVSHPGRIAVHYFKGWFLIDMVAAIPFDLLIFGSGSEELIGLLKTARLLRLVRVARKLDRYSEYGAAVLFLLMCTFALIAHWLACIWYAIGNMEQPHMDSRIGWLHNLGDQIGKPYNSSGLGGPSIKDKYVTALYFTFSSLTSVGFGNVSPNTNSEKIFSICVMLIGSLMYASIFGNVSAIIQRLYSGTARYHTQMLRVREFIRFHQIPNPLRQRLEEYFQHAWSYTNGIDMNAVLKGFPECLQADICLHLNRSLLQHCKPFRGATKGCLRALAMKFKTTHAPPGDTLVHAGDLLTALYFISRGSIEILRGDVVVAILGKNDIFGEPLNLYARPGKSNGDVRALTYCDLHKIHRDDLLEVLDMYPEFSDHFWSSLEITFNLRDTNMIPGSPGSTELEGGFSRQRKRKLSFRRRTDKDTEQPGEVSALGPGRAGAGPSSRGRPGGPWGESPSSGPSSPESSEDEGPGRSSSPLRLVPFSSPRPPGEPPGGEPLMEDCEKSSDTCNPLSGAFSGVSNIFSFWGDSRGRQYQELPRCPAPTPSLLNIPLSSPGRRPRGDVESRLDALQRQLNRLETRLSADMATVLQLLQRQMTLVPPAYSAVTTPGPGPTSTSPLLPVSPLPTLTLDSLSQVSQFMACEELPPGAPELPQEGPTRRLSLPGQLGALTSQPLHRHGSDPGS

| SMILES | hERG current change (%, negative = inhibition) at 1uM |
| --- | --- |
| Cc1nn2c(-c3ccccc3)ccnc2c1Br | 10.3% |
| Cc1ccc(NC(=S)N2CCC(c3nc4ccccc4s3)CC2)cc1 | 4.71% |
| O=C(CN1CCSC1=O)N1CCN(S(=O)(=O)c2ccc(Cl)cc2)CC1 | 3.03% |
| CCCSc1nc2cc(C)c(C)cc2n1CC(O)CO (stereo not drawn) | 5.41% |
| CC(C)[C@H](NC(=O)Nc1ccc(S(N)(=O)=O)cc1)C(=O)O | 12.1% |
| Cc1cc(C)c([N+](=O)[O-])cc1-c1ccc(/C=N/c2c(-c3ccco3)nc3ccccn23)o1 | 15.3% |
| O=C(c1ccc(Cl)cc1)N1CCN(c2cccc3[nH]ccc23)CC1 | 8.3% |
| S=c1[nH]nc(-c2ccccc2)n1CC1CCCO1 (stereo not drawn) | 11.2% |
| Cc1cccc(N2C(=O)N3[C@H](c4ccc(F)cc4)[C@@H]4C(=O)N(C5CCCCC5)C(=O)[C@@H]4[C@]3(Cc3ccc(Cl)cc3)C2=O)c1 | 13.3% |
| O=C(Nc1nc(-c2cccs2)cs1)c1ccc(Cl)cc1 | 13% |
| COc1ccc(NC(=O)c2onc(C)c2Cl)cc1 | -5.54% |
| CCC1Nc2ncnc(N3CCCCC3)c2N(Cc2ccccc2)C1=O.O=C(O)C(F)(F)F (stereo not drawn) | 12.5% |
| Cc1nc(N)sc1C(=O)OCC(C)C | 5.91% |
| CC1(C)CC2(CC(c3cccs3)c3cc(Cl)c(O)cc3O2)NC(=S)N1 (stereo not drawn) | 1.42% |
| Cc1ccc(CNC(=O)CSc2ncc(C(=O)Nc3ccccc3)c(=O)n2C)cc1 | 1.34% |
| Oc1ccccc1/C=C/c1noc(-c2ccccc2O)n1 | 15.2% |
| CCC(C(=O)NCCC1=CCCCC1)n1nc(C)c2c(C)n(-c3ccccc3)nc2c1=O (stereo not drawn) | -12.7% |
| Cn1cnnc1SC(C(=O)c1ccccc1)c1ccccc1 (stereo not drawn) | 6.79% |
| CCSc1nnc(NC(=O)c2nc(-c3ccccc3)n(-c3ccccc3)n2)s1 | 0.632% |
| NC(=S)Nc1cnc2ccccc2c1 | 15.6% |
| CC(NC(=O)C1CCN(c2nnc(-n3cccc3)s2)CC1)C12CC3CC(CC(C3)C1)C2 (stereo not drawn) | -8.18% |
| CCCCCCCCCCCC(=O)NC1CCS(=O)(=O)C1 (stereo not drawn) | -0.454% |
| O=C(NCCCn1ccnc1)c1ccc2c(c1)OCCO2 | 8.13% |

| SMILES | hERG current change (%, negative = inhibition) at 1uM |
| --- | --- |
| CC1CCCN(c2nc3c(c(=O)n(C)c(=O)n3C)n2CCSc2nc3ccccc3s2)C1 (stereo not drawn) | 3.35% |
| c1ccc(-c2cc3c(-n4cccc4)ncnc3o2)cc1 | 0.768% |
| O=C(C1CC(=O)N(C2CCCCCCC2)C1)N1CCC2(CC1)OCCO2 (stereo not drawn) | -12.2% |
| COc1cc(-c2c(NC(=O)c3ccco3)oc3c(C)cccc3c2=O)cc(OC)c1OC | 15.3% |
| O=C(Nc1ccc(-n2nncc2-c2ccco2)cc1)c1cc2ccccc2oc1=O | 11.8% |
| COc1ccc(CCNC(=O)c2cc(CC(C)C)on2)cc1OC | 1.47% |
| Cc1ccc(CNc2ccc([N+](=O)[O-])cc2C(N)=O)cc1 | 16.2% |
| CCOC(=O)N1CCN(S(=O)(=O)c2ccc(OC)c(Cl)c2)CC1 | 7.9% |
| COc1cc(-c2cn[nH]c2N)cc(OC)c1OC | 8.63% |
| Cc1ccc(-c2nc(CS(=O)CC(=O)NCCN3CCCCC3C)c(C)o2)cc1 (stereo not drawn) | 13.8% |
| COc1ccccc1CCN=C(N)NS(=O)(=O)c1ccc(F)cc1 | 11.8% |
| CN(Cc1cnc2nc(N)nc(N)c2n1)c1ccc(C(=O)N[C@@H](CCC(=O)O)C(=O)O)cc1 | 10.9% |
| COc1ccc2c(c1)C(C)=CC(C)(C)N2C(=O)CSc1nnc(-c2ccc(C)cc2)o1 | 14.1% |
| COc1ccccc1/C=C/C(=O)OCC(=O)c1c[nH]c2ccccc12 | 7.31% |
| CN1CCc2nc(SCc3cccc(Br)c3)c(C#N)cc2C1 | 10.1% |
| CCC1(C)Cc2c(sc(NC(=S)NC(=O)c3ccccc3)c2C#N)CO1 (stereo not drawn) | 14.7% |
| COc1ccc(NS(=O)(=O)c2cccc(C(=O)N3CCC3)c2)cc1 | 16.6% |
| N#Cc1ccc(OCc2nnc(SCC(=O)c3ccccc3)n2-c2ccccc2)cc1 | -20.5% |
| O=C(NCc1cccnc1)c1ccccc1NS(=O)(=O)c1ccc(F)cc1F | 13.9% |
| Cc1nc(N2CCN(Cc3ccc(Cl)cc3)CC2)c2oc3ccccc3c2n1 | 11.2% |
| Cn1cc(C(=O)C(=O)N2CCCc3ccccc32)c2ccccc21 | 12.3% |
| COc1ccc(S(=O)(=O)n2c(CCN3CCOCC3)nc3ccccc32)cc1 | -21.3% |
| CCOc1ccc(NC(=O)CCN2C(=O)c3ccccc3C2=O)cc1 | 11.7% |

| SMILES | hERG current change (%, negative = inhibition) at 1uM |
| --- | --- |
| CC(C(=O)O)C(=O)O | 23.5% |
| CN(C)c1ccc(-n2cccc2/C=C/[N+](=O)[O-])cc1 | 5.61% |
| CC(=O)Nc1ccc(S(=O)(=O)NCCNC(=O)c2ccccc2F)cc1 | 11.8% |
| O=C1CC(N2CCC(c3nc4ccccc4s3)CC2)C(=O)N1 (stereo not drawn) | 4.38% |
| CCCCC(O)(c1ccccc1)C(CN1CCOCC1)c1ccccc1.Cl (stereo not drawn) | 10.8% |
| Cc1ccc(C(=O)NCC(=O)OCC(=O)NC2CCCC(C)C2C)s1 (stereo not drawn) | -0.309% |
| Cl.Nc1cccc(CCc2nc3ccccc3[nH]2)c1 | -5.05% |
| COc1cc(CNC(=O)CCn2nc(C)c3c(C)n(-c4ccccc4)nc3c2=O)cc(OC)c1OC | 15.4% |
| Cc1onc(-c2ccccc2)c1C(=O)NC(=S)NNC(=O)c1ccc(O)cc1 | 9.65% |
| Cc1ccc(C2C(C#N)=C(N)Oc3n[nH]c(-c4cccnc4)c32)o1 (stereo not drawn) | 22.6% |
| CCCCNC(c1ccccc1)c1ccncc1 (stereo not drawn) | 8.56% |
| O=C(C1CCN(C2CC(=O)N(c3ccc(F)cc3)C2=O)CC1)N1CCOCC1 (stereo not drawn) | 11.2% |
| O=C(Cn1cncn1)c1ccc(Cl)cc1 | 8.74% |
| CCOc1ccc(NC(=O)c2ccc(NC(=S)NC3CCCCC3)cc2)cc1 | 16.3% |
| CC(C)c1ccc(NC(=O)CSc2nc3ccsc3c(=O)n2Cc2ccc(C(=O)O)cc2)cc1 | 8.26% |
| Cc1c(C(=O)O)cccc1-c1ccc(C=O)o1 | 12.3% |
| CCCc1nc2c([nH]1)C(c1cccnc1)C(C#N)=C(N)O2 (stereo not drawn) | 13.1% |
| Cc1cccc(-c2nc3c(c(=O)c4ccccc4n3C)c(=O)n2-c2ccccc2)c1 | 12.3% |
| Cc1[nH]oc(=O)c1N=Nc1ccc2[nH]c(=O)[nH]c2c1 | 11.3% |
| CC(C)c1ccc(NC2CCCN(C(=O)CCN3CCCC3=O)C2)cc1 (stereo not drawn) | 13.5% |
| CN(CC(=O)Nc1ccccc1Cl)C(=O)CSc1nncs1 | 15.7% |
| Cc1ccc(C)c(N2CCN(c3ccc(N4C(=O)COCC4=O)cc3[N+](=O)[O-])CC2)c1 | 15.7% |
| COc1ccc2nc(C)c(C(=O)NN)cc2c1 | 35.1% |

| SMILES | hERG current change (%, negative = inhibition) at 1uM |
| --- | --- |
| CCCNC(=O)Cn1cnc([N+](=O)[O-])n1 | 14.6% |
| CCCCC(=O)N/N=C/c1c(O)n(CC)c(=S)n(CC)c1=O | 11.4% |
| CCCn1c(SCC(=O)c2ccc3c(c2)NC(=O)CO3)nc2ccccc21 | 8.63% |
| Cc1nc(C(Cl)(Cl)Cl)nc2[nH]ccc(=O)c12 | 8.68% |
| Cc1cc(NC(=O)CSc2ccc(-c3ccccc3)nn2)no1 | 2.63% |
| CCCCN1CN(S(=O)(=O)c2ccc(OC)cc2)c2nc3ccccc3nc21 | -5.93% |
| CC1(C)NC(=O)N(Cc2cc(=O)n3ccsc3n2)C1=O | 16.6% |
| CCC1CCCCN1C(=O)c1sc2ncnc(N(CC)CC)c2c1C (stereo not drawn) | 3.18% |
| O=C(Nn1c(-c2ccncc2)nc2ccccc2c1=O)c1ccccc1Br | 13.6% |
| O=C(COC(=O)c1cccc([N+](=O)[O-])c1)NCc1cccs1 | 9.54% |
| Cc1nc2ncnn2c(C)c1Cc1ccccc1Cl | 11.7% |
| COc1ccccc1C(=O)N/C(=N/c1nc(C)cc(C)n1)Nc1ccccc1 | 8.05% |
| CC(=O)Nc1ccc(S(=O)(=O)NC2(C(F)(F)F)NC(=O)N(c3ccc(Cl)cc3)C2=O)cc1 (stereo not drawn) | 16.1% |
| CC1(C)OC2OC(C(=O)N/N=C/c3ccccc3F)C3OC(C)(C)OC3C2O1 (stereo not drawn) | 10.9% |
| CC(C)COC(=O)C1C2C=CC3(CN(C(C)c4ccc(Br)cc4)C(=O)C13)O2 (stereo not drawn) | 6.84% |
| CC(=O)Nc1ccccc1OCC(=O)NC(C)c1ccc(F)cc1 (stereo not drawn) | 8.67% |
| COC(=O)C1=CN(Cc2cccs2)C=C(C(=O)OC)C1c1cccc(OC)c1OC | 5.14% |
| COc1ccccc1C1CCN(C(=S)Nc2ccc(Br)cc2)CC1 | 8.67% |
| Cc1cc(C)cc(SCc2noc(C(=O)NCCC(C)C)c2C(=O)NCCC(C)C)c1 | 11.5% |
| COc1ccc(CC(=O)N/N=C(\C)c2cccs2)cc1 | 5.82% |
| CCCC1Cc2nc(N3CCCCC3)c(C#N)cc2CO1 (stereo not drawn) | 3.43% |
